From PubChem BioAssay AID2147 (National Center for Advancing Translational Sciences (NCATS), 2009)
In all, about 230,000 compounds went through this assay and about 3,600 (1.6%) were called active. Inconclusive results, whose numbers are uncertain, are shown with a selection of clear calls. Calls come from the whole dose curve; as a rule, active = well fitted inhibition curve with a large enough effect (not every such curve was filed as active); inconclusive = small, poorly fitted or top-dose-only effect, or another doubt; inactive = no such curve, though single readings can be large or run the other way. Potencies of inconclusive entries are doubtful fits and often do not repeat.

biological target: Lysine-specific demethylase 4E (Homo sapiens) (UniProt B2RXH2); assay: qHTS Assay for Inhibitors of Human Jumonji Domain Containing 2E (JMJD2E); settings: JMJD2E catalytic domain, FDH-coupled NADH fluorescence (FDH is formaldehyde dehydrogenase); series mostly up to 57.1 µM; activity change, negative = inhibition: at the top concentration
UniProt B2RXH2, sequence (B2RXH2 whole entry, looked up, the tested form may be a part): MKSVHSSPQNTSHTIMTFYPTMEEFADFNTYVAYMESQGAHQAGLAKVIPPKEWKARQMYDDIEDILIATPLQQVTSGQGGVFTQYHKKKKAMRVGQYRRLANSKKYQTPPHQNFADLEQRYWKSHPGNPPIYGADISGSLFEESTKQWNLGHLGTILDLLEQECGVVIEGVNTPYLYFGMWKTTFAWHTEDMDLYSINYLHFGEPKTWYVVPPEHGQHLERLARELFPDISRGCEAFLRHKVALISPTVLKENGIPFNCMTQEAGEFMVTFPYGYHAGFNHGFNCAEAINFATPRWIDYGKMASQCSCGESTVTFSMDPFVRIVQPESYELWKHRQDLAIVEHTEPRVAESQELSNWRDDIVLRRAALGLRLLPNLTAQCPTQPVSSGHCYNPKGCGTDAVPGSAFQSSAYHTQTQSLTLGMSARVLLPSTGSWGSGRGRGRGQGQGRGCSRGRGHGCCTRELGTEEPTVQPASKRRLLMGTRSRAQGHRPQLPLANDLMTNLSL
Note: nearly all actives have a fitted effect of over 50% in size.
Potency is the fitted concentration of half-maximal effect; tags give direction and shape of the fitted curve.
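Throughout, for activity change, negative = inhibition: 0% = wells with enzyme and -100% = buffer wells without enzyme.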

SMILES | Potency | activity change, negative = inhibition
CCOC(=O)c1ccc(N=C2S/C(=C\c3cc(C)n(-c4cccnc4)c3C)C(=O)N2C)cc1 | inconclusive: 3.98 µM [inhibitor, single point] | 
C=CCN(C(=O)CSc1nc2c(sc3ccccc32)c(=O)n1CCN(CC)CC)c1ccccc1 | inconclusive: 12.6 µM [inhibitor, partial curve] | 
Cc1cc(-c2ccco2)n(-c2ccccc2)n1 | inconclusive: 12.6 µM [inhibitor, partial curve] | 
O=C(Nc1ccccc1)Nc1cccc(-c2cn3cccnc3n2)c1 | inconclusive: 25.1 µM [inhibitor, partial curve] | 
CCSc1nnc(NC(=O)CSc2nnc(CNC(=O)c3ccc(OC)c(OC)c3)o2)s1 |  | inactive: -9.37%
Cc1ccc2c(c1)c1c(n2CC(O)Cn2c(C)nc3ccccc32)/C(=N\O)CCC1 (configuration not stated) | inconclusive: 39.8 µM [inhibitor, single point] | 
Cc1nnc(SCCN2CCOCC2)n1-c1cccc(Cl)c1 | inconclusive: 39.8 µM [inhibitor, single point] | 
O=c1cc(O)cc(/C=C/c2ccc(O)c(O)c2)o1 | inconclusive: 25.1 µM [inhibitor, partial curve] | 
S=c1[nH]c2ccc(Cl)cc2s1 | active: 7.94 µM | 
O=C(Cc1cccc2ccccc12)Nc1ccc(-c2cc3ccccc3oc2=O)cc1 | inconclusive: 25.1 µM [inhibitor, partial curve] | 
Cc1cccc(C2=NC(C(F)(F)F)(C(F)(F)F)c3c(n(-c4ccc(F)cc4)c(=O)[nH]c3=O)N2)c1 | inconclusive: 35.5 µM [inhibitor, single point] | 
CCS(=O)(=O)NCCc1cc2c(OC)ccc(OC)c2[nH]c1=O |  | inactive: -6.09%
COc1ccc(C[C@@](C)(N)C(=O)O)cc1OC | active: 11.2 µM | 
CC(=O)Nc1ccc(-c2nc3c(C)cccc3[nH]2)cc1 | inconclusive: 25.1 µM [inhibitor, partial curve] | 
CCn1c2ccccc2c2cc(/C=N/NC(=O)c3cccc(C)c3)ccc21 | inconclusive: 6.31 µM [inhibitor, partial curve] | 
Cc1ccc(CNC(=O)c2ccc3c(=O)n(CCCN4CCCC4=O)c(=S)[nH]c3c2)cc1 |  | inactive: 1.96%
O=C(NCCOc1nc(N2CCOCC2)nc(N2CCOCC2)n1)Nc1ccccc1 |  | inactive: 5.12%
COc1cccc(CN2CCN(Cc3ccc4c(NC(C)=O)cccc4n3)CC2CCO)c1 (configuration not stated) | inconclusive: 25.1 µM [inhibitor, single point] | 
c1ccc(CCc2nn3c(Cc4ccccc4)nnc3s2)cc1 |  | inactive: -14%
Cc1cc(C)n2cc(CSc3nncn3C)nc2n1 | inconclusive: 28.2 µM [inhibitor, partial curve] | 
CC(C)Oc1ccc(C2C(C#N)=C(N)Oc3c2oc(CO)cc3=O)cc1 (configuration not stated) | inconclusive: 14.1 µM [inhibitor, partial curve] | 
CCOC(=O)C1CCN(C(=O)c2ccc(NC(=O)C3CCCO3)cc2)CC1 (configuration not stated) |  | inactive: 1.48%
CCN(C(=S)Nc1cccnc1)c1ccccc1 | inconclusive: 22.4 µM [inhibitor, partial curve] | 
CCOc1ccc2[nH]cc(S(=O)(=O)c3ccc(F)cc3)c(=O)c2c1 | inconclusive: 25.1 µM [inhibitor, single point] | 

SMILES | Potency | activity change, negative = inhibition
O=C(O)CCC(=O)Nc1ccccc1C(=O)NC1CCCCC1 | inconclusive: 22.4 µM [inhibitor, single point] | 
COC(=O)c1oc2ccc(Cl)cc2c1NC(C)=O | inconclusive: 39.8 µM [inhibitor, single point] | 
CCOC(=O)c1cc(-c2cc(OC)c(OC)c(OC)c2)nc2c1c(=O)[nH]c(=O)n2Cc1ccccc1 | inconclusive: 35.5 µM [inhibitor, single point] | 
CCCC(c1nnnn1CC(=O)OCC)N(Cc1cc2ccc(C)cc2[nH]c1=O)C1CCCC1 (configuration not stated) | inconclusive: 35.5 µM [inhibitor, single point] | 
CCOC(=O)c1c(/N=C/N(C)C)sc(/C=N/Nc2ccccc2)c1-c1ccccc1 | inconclusive: 22.4 µM [inhibitor, single point] | 
COc1ccc(-n2nc(C(=O)NCC(=O)NCCCN3CCCCCC3)c3ccccc3c2=O)cc1Cl | inconclusive: 12.6 µM [inhibitor, partial curve] | 
COc1ccc(N2C(=O)CCC(C(=O)NCc3ccccn3)C2c2ccc(OC)c(OC)c2)cc1 (configuration not stated) |  | inactive: 3.97%
Cc1ccc(-c2cc(C(=O)N3CCN(c4ncccn4)CC3)c3cc(Br)ccc3n2)o1 | inconclusive: 14.1 µM [inhibitor, partial curve] | 
c1ccc(-c2ccc(OCCCn3cncn3)cc2)cc1 | inconclusive: 39.8 µM [inhibitor, single point] | 
CCS(=O)(=O)Nc1ccc(-c2nnc(SCC(=O)c3cccc(OC)c3)o2)cc1 |  | inactive: 4.5%
Cc1occc(=O)c1OC(=O)Nc1ccccc1 |  | inactive: -29.7%
CCc1ccc(/C=C2\CN(CC)Cc3c2nc2ccccc2c3C(=O)O)cc1 |  | inactive: 15.2%
CCc1cc(OCCCCNCc2ccccc2)ccc1Cl | inconclusive: 31.6 µM [inhibitor, single point] | 
O=C(NCC1CCCO1)C1CCN(C(=O)c2ccc(Cl)cc2)CC1 (configuration not stated) |  | inactive: -1.23%
O=C1NC(Cc2ccccc2)C(=O)N1CC(=O)N1CCCc2ccccc21 (configuration not stated) | inconclusive: 8.91 µM [inhibitor, single point] | 
COc1ccc(C(C)(C)C)cc1NC(=O)COC(=O)c1ccc([N+](=O)[O-])o1 |  | inactive: -18.7%
COc1ccc(C(=O)N=c2sc3ccccc3n2C)cc1 | inconclusive: 31.6 µM [inhibitor, partial curve] | 
Cc1cccc(Oc2sc(C(=O)c3ccccc3)c(N)c2C#N)c1C | inconclusive: 28.2 µM [inhibitor, single point] | 
Cn1nc(-c2ccccc2)cc1NC(=O)Nc1ccc(C(C)(C)C)cc1 |  | inactive: -6.67%
Cc1nc(SCCO)c([N+](=O)[O-])[nH]1 |  | inactive: 16.9%
COc1ccc(/C=C(/NC(=O)c2ccccc2)c2nc3ccc(Cl)cc3[nH]2)cc1OC | inconclusive: 35.5 µM [inhibitor, single point] | 
Cc1cccc(CN2C(=O)N/C(=C/c3cc(C)n(-c4cc(C)ccn4)c3C)C2=O)c1 | inconclusive: 28.2 µM [inhibitor, single point] | 
O=C(Nc1cccc2ccccc12)N1CCN(c2ccc(F)cc2)CC1 | inconclusive: 31.6 µM [inhibitor, partial curve] | 
O=C(CSc1nc2ccc(Nc3nc(N4CCOCC4)nc(N4CCOCC4)n3)cc2s1)N1CCOCC1 |  | inactive: -18.2%

SMILES | Potency | activity change, negative = inhibition
COc1ccc(-c2cc(-c3ccccc3)nc3ncnn23)cc1 | inconclusive: 31.6 µM [inhibitor, partial curve] | 
Cc1nc(NCc2cccnc2)c2c3c(sc2n1)CC(C)CC3 (configuration not stated) | inconclusive: 31.6 µM [inhibitor, single point] | 
O=C(CN1CCN(c2cccc(C(F)(F)F)c2)CC1)Nc1cccc(C(F)(F)F)c1 | inconclusive: 35.5 µM [inhibitor, single point] | 
COC(=O)Cn1c(=NC(=O)c2cc(-c3cccs3)nc3ccccc23)sc2cc(S(N)(=O)=O)ccc21 | inconclusive: 22.4 µM [inhibitor, partial curve] | 
CC1=NC(=O)C(N=Nc2cccc(C(=O)O)c2)N1c1ccccc1 (configuration not stated) |  | inactive: 0.898%
Cn1c(C(=O)OCC(=O)NCc2cccs2)cc2sccc21 |  | inactive: 4.77%
Cc1cccc(NC(=S)NC(=O)/C=C/c2ccccc2)n1 | inconclusive: 35.5 µM [inhibitor, single point] | 
Cc1cccc2cc(C(c3nnnn3CC3CCCO3)N3CCc4ccccc4C3)c(=O)[nH]c12 (configuration not stated) | inconclusive: 28.2 µM [inhibitor, partial curve] | 
COc1cccc(C2C=C(c3ccc(Br)s3)Nc3ncnn32)c1OC (configuration not stated) | inconclusive: 35.5 µM [inhibitor, single point] | 
OC1(c2ccc(Cl)c(Cl)c2)C[n+]2ccccc2N1Cc1ccccc1 (configuration not stated) | inconclusive: 31.6 µM [inhibitor, partial curve] | 
FC(F)(F)c1cc(-c2cccs2)nc(NCc2ccco2)n1 | inconclusive: 39.8 µM [inhibitor, single point] | 
O=c1[nH]c(-c2ccccc2O)nc2c1CCCC2 | inconclusive: 11.2 µM [inhibitor, partial curve] | 
CN(C)c1ccc(-c2nn3c(-c4ccccc4Cl)nnc3s2)cc1 | inconclusive: 31.6 µM [inhibitor, partial curve] | 
Cn1nccc1C(=O)N1CCN(c2ccc(F)cc2)CC1 |  | inactive: -4.59%
Cc1cc([N+](=O)[O-])cc2c1NC(c1ccccn1)C1CC=CC21 (configuration not stated) |  | inactive: -15.1%
Cc1ccc(-c2n[nH]c(=O)c3ccccc23)cc1S(=O)(=O)NCCO |  | inactive: 6.57%
Brc1ccc(-c2csc(N3CCc4ccccc4C3)n2)cc1 |  | inactive: -1.69%
COc1ccc(C(=O)/C=C\c2ccc(NC(=O)c3cccs3)cc2)cc1 | inconclusive: 39.8 µM [inhibitor, single point] | 
N#Cc1c(NC(=O)C2C3C=CC(C3)C2C(=O)O)sc2c1CCCCC2 (configuration not stated) |  | inactive: -3.62%
COc1ccc(N2CCN(C(=O)c3oc4ccccc4c3C)CC2)cc1 |  | inactive: 1.7%
CN1CCN(c2ccc(Cl)cc2NS(=O)(=O)c2ccccc2Cl)CC1 |  | inactive: -0.868%
Cc1cc(C)c(O)c(N)c1 | active: 15.8 µM | 
CCOC(=O)N1CCN(C(=O)c2ccc(NC(=O)CC)cc2)CC1 | inconclusive: 35.5 µM [inhibitor, single point] | 
CC(C)C(=O)Nc1sc2c(c1-c1nc3ccccc3[nH]1)CCCC2 | inconclusive: 31.6 µM [inhibitor, partial curve] | 
